In ChEMBL document CHEMBL4888484, “Replenishing the malaria drug discovery pipeline: Screening and hit evaluation of the MMV Hit Generation Library 1 (HGL1) against asexual blood stage Plasmodium falciparum ,using a nano luciferase reporter read-out” (2022):
The whole screen tested about 150,000 compounds, of which about 540 (0.36%) showed an effect of 50% or more. This is one part of the list.

Test system: Plasmodium falciparum
Assay: Primary screen in NF54 nanoGlo assay, in single point, at 2uM, 72h; a lower Z score goes with more inhibition
Assay type: functional, Erythrocyte
Details: timepoint 72 hour

Structure (SMILES) | % Inhibition [%] | Z score
O=C1COc2c(cc(C(F)(F)F)cc2NC(=O)NCCc2cccc(Cl)c2)N1 | 0 | 0.06
COc1cccc(C(=O)OCC2(CC#N)CC2)c1 | 0 | -0.06
COc1cccc(CN2CC[C@H](c3nc(N(C)C)ncc3C(=O)NC(C)C)C2)n1 | 1 | -0.16
Cc1cnc2c(Cl)c(C(=O)NC[C@@H]3COc4ccccc4C3)nn2c1 | 1 | -0.26
Cc1nc2c([nH]1)CN(Cc1scnc1C)CC2 | 0 | -0.02
N#CCC[C@H](C#N)CN1C(=O)NC2(CCCCCCC2)C1=O | -7 | 1.05
Cc1ccccc1-n1ncc([C@H](C)NC(=O)c2ccc(-n3cnnn3)cc2)c1C | -8 | 0.96
CC(C)(C)OC(=O)N1CCc2c(ccc(NC(=O)CCCN3CCOC3=O)c2F)C1 | -9 | 1.55
Cc1csc(CN(C)c2nccc(N3CC[C@H](O)C3)n2)n1 | -6 | 1.02
CN(C(=O)C1CCCC1)c1nc(CNC(=O)C2CCCC2)cs1 | -6 | 0.58
Cc1cc(NC(=O)CN2C[C@H](C)c3ccccc32)no1 | -9 | 1.05
CCc1cc(CC(=O)N2CCC(c3nnnn3C)CC2)n(C)n1 | 3 | -0.53
O=C(Cn1ccnc1[C@H](O)c1ccccc1)NC1CCCCC1 | -2 | 0.27
CCOc1ccnc(N[C@H]2CC=CC[C@@H]2C(N)=O)n1 | -5 | 0.83
Cn1cc(CCC(=O)N2C[C@@H]3CC[C@H]2CN(Cc2cscn2)C3)cn1 | -13 | 1.19
COc1ccccc1CNC(=O)[C@H]1CN(C(=O)c2cccs2)CC12CCCCC2 | 34 | -3.8
Cc1cc(C(=O)N2CCNC(=O)c3c(C)cccc32)c(C)o1 | 0 | -0.04
Cc1cnc(C2CCN(Cc3cccs3)CC2)n1[C@H](C)CO | -10 | 0.9
CCOCCC1(CNC(=O)[C@@H]2CC=CCC2)CCC1 | -9 | 1.4
O=S(=O)(Nc1cccc2[nH]ccc12)c1ccc2[nH]nnc2c1 | 28 | -3.19
COc1cccc(-c2nc3n(c2C(=O)Nc2cccc(Cl)c2)CCS3(=O)=O)c1 | 40 | -5.4
Cc1ccc(N2CCCN(Cc3ccc(Cl)c(Cl)c3)C2=O)c(NS(=O)(=O)c2cccc(Cl)c2)c1 | -7 | 0.97

Structure (SMILES) | % Inhibition [%] | Z score
Cc1c([C@@H]2CC(=O)Nc3cc(OCC(=O)O)ccc32)oc2ccccc12 | 3 | -0.65
CC(=O)NCCCN(C)C(=O)c1cccc(Br)c1C | -9 | 1.52
O=C(Nc1ccc2c(c1)OCO2)C1CCN(C(=O)c2ccc(Cl)c(N3CCCC3=O)c2)CC1 | 33 | -3.7
COc1ccc(/C=C/c2nc(-c3ccc(N4CCOCC4)cc3)no2)cc1 | 9 | -1.6
CCOC(=O)c1cccnc1N1CCOC2(CCC2)C1 | -8 | 0.84
Cc1ccc(N[C@H]2CCC[C@@H](C(=O)N3CCNC(=O)C3)C2)nc1 | -22 | 2.8
O=C1NC2(CCCC2)C(=O)N1C[C@H](O)COc1cccc2ccccc12 | 3 | -0.59
CCOC(=O)N1CCC(NC(=O)c2c(-c3ccccc3Cl)noc2C)CC1 | -9 | 0.76
O=C(c1ccccc1Cl)N(Cc1cccc(Cl)c1)[C@H]1CCS(=O)(=O)C1 | -7 | 1.25
CCn1cc(C(=O)NCCCOc2cccnc2)cn1 | -15 | 1.78
COC1CCN(c2nnc(C3CCOCC3)n2C)CC1 | -17 | 2.23
COc1ccc2c(n1)N(C(=O)[C@H]1OCC[C@H]1Cn1cccn1)CC2 | 2 | -0.36
O=C1C[C@H](N2CCN(Cc3ccccc3)CC2)C(=O)N1Cc1ccccc1 | 0 | -0.02
Cn1ccnc(OC2CCCCC2)c1=O | 7 | -0.94
CC(C)[C@@H]1C[C@@H](Cc2nc(C3(S(C)(=O)=O)CC3)no2)c2ccccc21 | 0 | 0.01
NS(=O)(=O)c1ccc(-n2nc(COc3ccccc3)nc2C2CC2)cc1 | -8 | 1.47
O=C(NCCc1nnc2ccccn12)c1ccc2c(c1)OCCO2 | -19 | 2.75
CN(C)c1cnc(-n2cc(NC(=O)Nc3cccc(C(F)(F)F)c3)cn2)nc1 | -5 | 0.74
CN1CC(=O)N[C@@H](c2ccc(Cl)cc2)C1=O | 29 | -3.69
Cc1csc(CNC(=O)CCC(=O)Nc2ccc3c(c2)CCC3)n1 | -18 | 1.87
COc1c(C)cnc(CN2CCC(N(C)CCc3scnc3C)CC2)c1C | -9 | 1.21
Cc1ccc(-n2nc(C(=O)NCc3ccccn3)c(=O)n(Cc3ccccc3Cl)c2=O)cc1 | 3 | -0.33

Structure (SMILES) | % Inhibition [%] | Z score
Cc1cc(C)nc(CCNC(=O)c2cc(COc3cncc(Cl)c3)on2)n1 | -2 | 0.21
CN(Cc1nccn1C)C(=O)NC(C)(C)C | -4 | 0.69
OCCc1ccc(-c2cc(NCc3cccnc3)nc3[nH]ccc23)cc1 | -8 | 0.86
O=c1n(-c2ccccc2)cc(-c2ccccc2)n1-c1ccccc1 | -14 | 1.7
Cn1cc(NS(=O)(=O)c2cnn(C3CCC3)c2)c(-c2ccco2)n1 | 2 | -0.44
CC(C(=O)N(CC(O)CC(C)(C)C)C1CCN(C)CC1)C1CC1 (stereo not given) | 1 | -0.12
COC(=O)c1cc(-c2ccc(C(=O)N[C@H]3CC[C@H](O)CC3)cc2)cn1C | -7 | 1.37
Nc1c2c(-c3ccc(Cl)cc3)nc(N3CCCC3)nc2nn1-c1ccc(Cl)cc1 | -8 | 1.32
Cc1nc(C)c(NC(=O)N2CCC[C@H]3CN(C)C[C@H]32)s1 | -3 | 0.43
CC(=O)Nc1ccc(C(=O)Nc2cccc(NC3CCCC3)c2)cc1 | -9 | 0.79
CN1CCC(N(CCc2ccccc2)C(=O)c2cnc[nH]c2=O)CC1 | -1 | 0.27
CC[C@H](C)NC(=O)Nc1cc(Cl)ccc1Cl | 3 | -0.39
COCC(=O)N[C@@H]1CN(C(=O)C2CCCCCC2)C[C@H]1c1ccnn1C | 5 | -0.82
Cc1ccc(=O)n(Cc2ccn(-c3ccc(F)cc3F)n2)n1 | -4 | 0.51
CN(Cc1cscn1)c1cc(C2CC2)ncn1 | -8 | 1.13
COC(=O)c1c(F)cccc1NS(=O)(=O)C[C@H](OC)C1CC1 | -10 | 1.05
CC(=O)C(C(=O)Nc1ccc(F)cc1)C(c1ccc(Cl)cc1Cl)C(C#N)C#N (stereo not given) | -6 | 1.09
Cc1sc2ccccc2c1S(=O)(=O)N(C)Cc1cnccn1 | -6 | 0.78
O=C(Cn1cnc2ccccc21)N1CCN(S(=O)(=O)C2CC2)CC1 | -2 | 0.26
CS(=O)(=O)CCn1nnc(Cc2ccc(Cl)c(Cl)c2)n1 | 1 | -0.18
COCc1cn(C2CCN(C(=O)NC3CCCC3)CC2)nn1 | 1 | -0.26
Cc1ccc(CC(=O)Nc2cc(Cl)cc(C(=O)O)c2)o1 | 0 | 0.09

Structure (SMILES) | % Inhibition [%] | Z score
Cc1cc2ncn(Cc3ccoc3C(=O)O)c2cc1C | -1 | 0.14
CC(=O)N1CCc2ccc(OCc3nc(C(=O)NCc4cccc(F)c4)cs3)cc2[C@@H]1c1cccc(F)c1 | -12 | 1.13
CCN(C(=O)c1ccnn1C)c1ncccc1C | 3 | -0.24
Cc1ccc(S(=O)(=O)NC[C@H]2CCCN2c2ncccn2)cc1C | 16 | -1.8
O=C(C1CCCN1c1ncccn1)N1CCCC(O)C1 (stereo not given) | -12 | 1.06
O=C(NS(=O)(=O)[C@H]1CCCOC1)c1ccc2sccc2c1 | -14 | 2.66
Cc1nc([C@H](C)NC(=O)CCC(F)(F)F)n[nH]1 | -16 | 2.43
CCOC[C@H](C)CS(=O)(=O)NCCc1cc[nH]n1 | -12 | 1.54
O=S(=O)(c1cncc(Br)c1)N1CCCCO1 | -7 | 0.97
O=C1COc2ccccc2CN1C1CCCCCC1 | -2 | 0.2
CNC(=O)c1noc(CN2C[C@@](C)(Cc3ccc4c(c3)OCO4)CCC2=O)n1 | -6 | 0.77
Cn1ccnc1CN1CCO[C@H](C(=O)NCCc2cccnc2)C1 | -3 | 0.69
CCNC(=O)N1CCC(N2C[C@H](OCC3CC3)C23CCOCC3)CC1 | -3 | 0.58
O=C(Cn1nc(C2CC2)cc1C(=O)N1CCCC1)Nc1ccc(F)c(F)c1 | -9 | 1.47
Cc1ccc(NC(=O)Cn2c(=O)n(Cc3cccc(Cl)c3)c(=O)c3ccccc32)c(Cl)c1 | 4 | -0.44
CC1CC(NCC2(C)CCN(C(=O)OC(C)(C)C)CC2)CC(C)O1 (stereo not given) | 6 | -0.91
O=C(Cc1cccnc1)N1CC(n2cnnc2C2CCOCC2)C1 | -2 | 0.37
CCCN(Cc1ccncc1)Cc1ccccn1 | -16 | 2.2
CNC(=O)[C@@H]1C[C@H](NCc2cc(F)ccc2F)CN1Cc1ccccc1Cl | 13 | -1.65
